According to the RNAGym collection of RNA variant scans (doi:10.1093/nar/gkz1192):
Read counts are not given, so values of variants with three or more changes are uncertain.

B1: CPEB3 Ribozyme (parent)
chain: UAACAGGGGGCCACAGCAGAAGCGUUCACGUCGCAGCCCCUGUCAGAUUCUGGUGAAUCUGCGAAUUCUGCUGUAUAUCUC

Variants of: B1
Test: self-cleavage, relative activity (ratio to wild type); higher = more cleavage; in vitro, sequencing
Method in brief: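 After error-prone PCR and barcoding, CPEB3 ribozyme mutant libraries were transcribed with T7 RNA polymerase at 37°C for 5 hours, then given 15 min with DNase I before an EDTA stop, and they cleaved during both steps. Reverse transcription with template switching preceded Illumina sequencing. Relative activity divides a variant's cleaved/total read fraction by the unmutated ribozyme's. At least 5 reads were required per variant, and three batches were averaged.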
Work on U1C A3G U25G A28G U51A yielded a self-cleavage of 0.03.
With U1A G16A U51G A56U the self-cleavage was 0.14.
For U1C A3G C14U C34U U58C, the self-cleavage was 0.06.
Variant U1A A28G A45U U80A has a self-cleavage of 0.25.
U1C A2U A5U showed a self-cleavage of 0.91.
Variant U1A A13U U31C G46U U51G A77U has a self-cleavage of 0.13.
With U1C A5U C32U U51A A64G U69C the self-cleavage was 0.11.
For U1A A35U G46U, the self-cleavage was 0.07.
In the case of U1A U31C G36A U58A C62G, the self-cleavage is reported as 0.15.
U1A A5G U41C A56G U60A showed a self-cleavage of 0.28.
U1A A13G U25C A45U gave a self-cleavage of 0.26.
Variant U1A A47G U58C U74C U76C has a self-cleavage of 1.27.
U1A U25C G46A A64U gave a self-cleavage of 0.2.
Work on U1A C71A U78C yielded a self-cleavage of 0.23.
For U1A A3G A35U A56G, the self-cleavage was 0.67.
Work on U1A A20G C29A C34U A64G yielded a self-cleavage of 0.4.
Work on U1A A3G G9A A28G U60G U72C U74A yielded a self-cleavage of 0.06.
In the case of U1A A2G A18U U80C, the self-cleavage is reported as 0.32.
U1A A13G U80A showed a self-cleavage of 1.01.
U1C A2U G7C U49A gave a self-cleavage of 0.52.
Variant U1A U25A C34U has a self-cleavage of 0.08.
U1A A21G C29A gave a self-cleavage of 0.13.
Variant U1A A35G U66C U69C has a self-cleavage of 0.57.
For U1A U31C G33A C71A, the self-cleavage was 0.15.
For U1C A2G A13U U26C A28G, the self-cleavage was 0.28.
U1A A13C U25C A35U U41A U67G U76C showed a self-cleavage of 0.1.
Work on U1C A5G A15U A28G U58C yielded a self-cleavage of 0.07.
U1A U26A U41A A56G gave a self-cleavage of 0.08.
U1A U41C A47G U48C G61A U67C U78C gave a self-cleavage of 0.08.
In the case of U1A A56G U72A, the self-cleavage is reported as 0.39.
Variant U1A A13G A64G U69C has a self-cleavage of 0.33.
With U1C A3U A5U A18G C23U A77U C81U the self-cleavage was 0.1.
Variant U1A A15U A21G C34A A35G U74A has a self-cleavage of 0.25.
U1A A18U U54C A57G U67C U69A showed a self-cleavage of 0.16.
For U1A A3C A57G C79U, the self-cleavage was 1.21.
Variant U1C A2U U43A has a self-cleavage of 1.12.
U1A A47G U74C showed a self-cleavage of 1.21.
For U1A A2G A18G U54C U60C A64G U69C, the self-cleavage was 0.14.
U1A A15G A28G gave a self-cleavage of 0.48.
U1A U54C U66C U80C C81G gave a self-cleavage of 0.22.
Variant U1A A28G U31A U58G U72C has a self-cleavage of 0.2.
With U1C A2G A45G A56U the self-cleavage was 0.07.
U1A U41A A45G U51A gave a self-cleavage of 0.06.
In the case of U1C A5G U26C U41C G42C, the self-cleavage is reported as 0.09.
For U1A G8A U41C, the self-cleavage was 0.12.
In the case of U1A A57G U60C U69C U72C, the self-cleavage is reported as 0.18.
Work on U1C A2U A13G yielded a self-cleavage of 0.8.
U1A A13G U76A showed a self-cleavage of 0.65.
U1A A15U A45C C59U showed a self-cleavage of 0.3.
For U1A A13G U25C C39A U51A, the self-cleavage was 0.25.
U1A A15U C23U A28U A56G U76A gave a self-cleavage of 0.06.
U1A A13G U26A showed a self-cleavage of 0.44.
For U1A U49C A57U U60C, the self-cleavage was 0.14.
For U1A U26C U43C U80A, the self-cleavage was 0.83.
Work on U1A U43A U66C yielded a self-cleavage of 0.44.
In the case of U1A A45G U58C C79U, the self-cleavage is reported as 0.26.
U1A A15G U31C G42A showed a self-cleavage of 0.33.
U1C A2G U54C U69A U80C showed a self-cleavage of 0.45.
U1A C37U G46U showed a self-cleavage of 0.17.
U1A G36C A45U gave a self-cleavage of 0.26.
In the case of U1A U26A U43C, the self-cleavage is reported as 0.24.
Variant U1A A5U C29U A57G A77G has a self-cleavage of 0.26.
For U1A G16C A45G U51C U72A, the self-cleavage was 0.18.
U1A A21C U60C U78A gave a self-cleavage of 0.02.
Work on U1C A5G G8U U25C U43A U49C U51C yielded a self-cleavage of 0.04.
Work on U1A A2C A47G U60C yielded a self-cleavage of 0.26.
In the case of U1A C29A U78C, the self-cleavage is reported as 0.22.
Variant U1C A5G A57G U67A has a self-cleavage of 0.09.
Work on U1A A35G U74C yielded a self-cleavage of 1.24.
U1A A28G U49C U80A showed a self-cleavage of 0.27.
Work on U1A A5G A56G A65G U72C yielded a self-cleavage of 0.35.
Work on U1A G9A A18G A56G A57G yielded a self-cleavage of 0.07.
In the case of U1C A2C A47G U66C U78A, the self-cleavage is reported as 0.04.
Variant U1A G42U U66G G70A has a self-cleavage of 0.16.
Variant U1C A2G A15U A20G C38G A64U A75G has a self-cleavage of 0.06.
Work on U1A U26C A35G G55A U60A yielded a self-cleavage of 0.23.
For U1A G6A U26C C40U G63A, the self-cleavage was 0.17.
U1A A5U A20U U67C showed a self-cleavage of 0.27.
Variant U1A C37G U48C A57G U58C U69C U72C has a self-cleavage of 0.03.
Variant U1A A2G G22A A35G U41A G61A has a self-cleavage of 0.1.
In the case of U1A A13G C37U U43A A64U, the self-cleavage is reported as 0.17.
Work on U1C A2U A65G U78A yielded a self-cleavage of 0.18.
U1A A21G U25A A45U A56G U72G U74A gave a self-cleavage of 0.07.
With U1C A5G C17U G30A U60A the self-cleavage was 0.08.
For U1A U31A U48C, the self-cleavage was 0.16.
Variant U1A A64U A77G has a self-cleavage of 0.28.
U1A G6A A57G U58A U74C gave a self-cleavage of 0.1.
With U1A G9U U43C A57U A64G C71U the self-cleavage was 0.08.
In the case of U1A A13U A18G G33A U67C U69C A75G, the self-cleavage is reported as 0.06.
For U1A A15U G19U U41C, the self-cleavage was 0.12.
U1C A2C A5G G7A A21U C39U U67C gave a self-cleavage of 0.21.
Variant U1A C38G A47G C59A U69A A77U U80A has a self-cleavage of 0.07.
For U1A A3G U41G C59A U66C, the self-cleavage was 0.2.
For U1A A47G U58C U76A, the self-cleavage was 1.09.
In the case of U1A A20U U51C, the self-cleavage is reported as 0.45.
Variant U1A C11U A20G A21G G70A has a self-cleavage of 0.06.
Work on U1A A28U C38U A56G A64G yielded a self-cleavage of 0.1.
With U1C A3G A13G U25C U54C the self-cleavage was 0.56.
Work on U1A A64G U67C yielded a self-cleavage of 0.27.
In the case of U1C A2U U41C A45U A65G U74C U80C, the self-cleavage is reported as 0.33.
Variant U1A A65U U66G has a self-cleavage of 0.51.
For U1A U54A A65G U78C, the self-cleavage was 0.4.
In the case of U1A A15U A35U A45C C59U A77G, the self-cleavage is reported as 0.1.
For U1A C11U A18G U48A A56G U69A, the self-cleavage was 0.07.
Variant U1C A5G A18U C50U A57U has a self-cleavage of 0.08.
U1A A45G A47G C59A C62U showed a self-cleavage of 0.07.
Variant U1C A2U U25C A28G C32U C40U U43C has a self-cleavage of 0.05.
Work on U1A A21G U25C C50U A65G A77U yielded a self-cleavage of 0.05.
U1A A56U U69A showed a self-cleavage of 0.25.
Work on U1A A20G U25C A57G yielded a self-cleavage of 0.09.
Variant U1C A2G A18U A28U C29A U41A U72C has a self-cleavage of 0.09.
In the case of U1A U51G G52A G53A G55A U80G, the self-cleavage is reported as 1.14.
Variant U1A G30C A35U U43C C44A U80C has a self-cleavage of 0.1.
Variant U1A C23U U26C A35G A64U U69A U78A has a self-cleavage of 0.05.
In the case of U1A G10U A21G U31C, the self-cleavage is reported as 0.1.
With U1A A13U U26A C29U U69C the self-cleavage was 0.26.
In the case of U1C A3G A18G U51A U80A, the self-cleavage is reported as 0.92.
Variant U1A U25C C37U has a self-cleavage of 0.11.
U1A C23U A35G U66C A77G showed a self-cleavage of 0.47.
U1A A3G U25C U48C U49C C59U gave a self-cleavage of 0.19.
With U1A C39A U49G the self-cleavage was 0.26.
In the case of U1A U43C U76A, the self-cleavage is reported as 0.33.
In the case of U1A A13U G22U G63A A64G A75G, the self-cleavage is reported as 0.13.
With U1A A5G A45U C62U U76C the self-cleavage was 0.24.
With U1A A5G A20G U25A A64U the self-cleavage was 0.14.
For U1C A3G A35U G36A U41C, the self-cleavage was 0.7.
Variant U1A A20G C27U has a self-cleavage of 0.26.
With U1A A21G U60C A65G U72C U74C the self-cleavage was 0.1.
For U1A A3G A45U A47G U80C, the self-cleavage was 0.72.
In the case of U1A A15G U51C, the self-cleavage is reported as 0.81.
For U1A U43C A45G, the self-cleavage was 0.66.
Variant U1A U43C A45U has a self-cleavage of 0.28.
Variant U1A A20G C29A has a self-cleavage of 0.42.
Variant U1C A5G U72C has a self-cleavage of 0.47.
U1A U25C U60C U78C gave a self-cleavage of 0.09.
U1A A2G A5C A47G A56G U69A U80A gave a self-cleavage of 0.25.
For U1C A3G U48C U72C, the self-cleavage was 0.12.
Work on U1A G24C U41A U76C yielded a self-cleavage of 0.16.
Work on U1A A2G A13G U41C A45G U54C yielded a self-cleavage of 0.29.
U1A G9A C27G A35G A45G A56U gave a self-cleavage of 0.06.
U1A C29U U49C U60C U72A gave a self-cleavage of 0.15.
U1C A3U C12U A56G A57G showed a self-cleavage of 0.52.
Work on U1A A65G U78C yielded a self-cleavage of 0.2.
In the case of U1A U60C C62U, the self-cleavage is reported as 0.22.
U1C A5G A13G A18G showed a self-cleavage of 0.65.
Work on U1A A5G A15G A21G U31C A45U U76G yielded a self-cleavage of 0.04.
Variant U1A U41A A47G U54C U60A U66C has a self-cleavage of 0.09.
U1C A3G A21G C29U G33C A47G U54C gave a self-cleavage of 0.05.
In the case of U1A G9C U26A C71U, the self-cleavage is reported as 0.08.
Work on U1A A21U U80C yielded a self-cleavage of 0.64.
U1A A15U G24C U49A U74C gave a self-cleavage of 0.13.
In the case of U1A A13U U49A, the self-cleavage is reported as 0.78.
Variant U1C A3G U26G A28G U54G has a self-cleavage of 0.59.
U1A A13U A56U A75G gave a self-cleavage of 0.48.
For U1A A28G A65G, the self-cleavage was 0.23.
For U1C A5U A45G U51A U69A U80A, the self-cleavage was 0.21.
U1A A2G C34U C40U G46A gave a self-cleavage of 0.09.
With U1A A3G C11G U66C the self-cleavage was 0.4.
With U1A U41C A45C the self-cleavage was 0.52.
Work on U1A A3G C39A A77G yielded a self-cleavage of 0.54.
Work on U1A A2C U25C U51A U67A U69A yielded a self-cleavage of 0.07.
U1A U26A C62A showed a self-cleavage of 0.26.
With U1A A2C A47G the self-cleavage was 1.06.
U1A A5G A13G A15G U25C G33A U54A showed a self-cleavage of 0.15.
Work on U1A U25A U26C U78C U80A yielded a self-cleavage of 0.12.
Work on U1A U54G U72C yielded a self-cleavage of 0.79.
In the case of U1C A2G U72C, the self-cleavage is reported as 0.86.
